Experimental data published in PMC4242493.
This is one part of the list. The list includes weakly bound sequences.

target: MaxL homodimer (UniProt P61244); experiment: universal protein-binding microarray (PBM); details: PBS-based mixture, 10 nM His-tagged protein dimer, 2% milk, 200 ng/uL BSA, 50 ng/uL salmon testes DNA, 0.02% TX-100; detection with Alexa 488 anti-His …; high values mean tight binding; most listed sequences are background and not binding sites; double strand, one strand shown
UniProt P61244, sequence (P61244 whole entry): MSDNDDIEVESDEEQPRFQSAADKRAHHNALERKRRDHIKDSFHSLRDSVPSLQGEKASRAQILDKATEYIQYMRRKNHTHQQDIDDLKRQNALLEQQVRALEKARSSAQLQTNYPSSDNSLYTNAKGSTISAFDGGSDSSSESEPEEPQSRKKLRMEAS

Row | Sequence | binding signal (normalized occupancy)
1 | AAGGCCGC | 0.0666
2 | ACTGGCAC | 0.0774
3 | GTTTGACA | 0.0782
4 | AATAAACA | 0.0842
5 | CGTGCTAC | 0.0907
6 | AAGTCCCC | 0.0759
7 | CGTGTAGC | 0.0837
8 | CTTAGAAG | 0.0745
9 | ATCTTTCA | 0.0831
10 | CTGCCGGC | 0.0638
11 | CAGGGCCC | 0.0698
12 | ATGCCCGA | 0.0773
13 | GGTGGCCA | 0.0813
14 | ACGTGGTG | 0.1
15 | ACCGTTTA | 0.0784
16 | CCCGTCCC | 0.0747
17 | GCACCGGC | 0.0755
18 | ATCAAAGA | 0.0692
19 | CAAGTCAA | 0.0782
20 | ATCCCCCA | 0.0884
21 | ATTTTGCA | 0.0753
22 | ACGGCCGC | 0.0677
23 | CTGGTATA | 0.0774
24 | ATGAGATG | 0.094
25 | CCATAATA | 0.0816

Row | Sequence | binding signal (normalized occupancy)
26 | GAGACTCA | 0.0747
27 | CGGCAGGC | 0.0662
28 | ACACTTAT | 0.0794
29 | AATCGGAG | 0.0688
30 | CAAGGCTC | 0.0708
31 | GATGACGA | 0.0823
32 | ATCAGGAA | 0.0731
33 | ATGGTTTG | 0.0776
34 | AGGTGTCC | 0.0751
35 | AGGTTACA | 0.0739
36 | GTCCTGTA | 0.0738
37 | AAAACCAA | 0.0747
38 | GTTGCTAA | 0.0758
39 | ACAAAGAG | 0.0758
40 | GGGCGTTA | 0.0774
41 | ATACACTG | 0.0795
42 | GCTCAATA | 0.0723
43 | CGGTGCGA | 0.0686
44 | CTCAAGCA | 0.0708
45 | AAGTGCTG | 0.0716
46 | GAATTTTA | 0.0753
47 | CTCTCGTA | 0.0718
48 | GAGCCTAC | 0.0709
49 | GCAATGGA | 0.0742
50 | ATCTAGAC | 0.0737

Row | Sequence | binding signal (normalized occupancy)
51 | ATTGGCGA | 0.0813
52 | GGGATTTA | 0.0743
53 | GGCCGAAA | 0.067
54 | CCCTGACC | 0.0748
55 | ACGGATAT | 0.0773
56 | CTCTTGGA | 0.0683
57 | AGTAGTAG | 0.0786
58 | CTCATTAC | 0.0827
59 | TACTTCTA | 0.0754
60 | AATGCAGT | 0.0781
61 | AGTAAACT | 0.073
62 | AAGATTGA | 0.0771
63 | ACTACGGC | 0.0697
64 | CGATTGCC | 0.0718
65 | ACCTTCTC | 0.0716
66 | AGGGTCTA | 0.0705
67 | GCATTACA | 0.0804
68 | GCGTAAAA | 0.0713
69 | AATTGTGA | 0.0766
70 | TGGGACCA | 0.0798
71 | GCCACATA | 0.0776
72 | GTCCGGCA | 0.0705
73 | TGGCACAA | 0.0776
74 | GGGTTGGA | 0.071
75 | AGTTATTC | 0.0805

Row | Sequence | binding signal (normalized occupancy)
76 | AGCATGCC | 0.112
77 | ATCGGCCA | 0.0714
78 | ACAAACGT | 0.0788
79 | TGCTCAAA | 0.0745
80 | ACGCTGTG | 0.0735
81 | AATGGTCT | 0.0762
82 | ACACCGGC | 0.0707
83 | ACCAGAAA | 0.0769
84 | ATGAGGCG | 0.077
85 | CTCGCCAC | 0.0793
86 | CGATTCTA | 0.0764
87 | AGGTTCTG | 0.0772
88 | ATTAAGAA | 0.0754
89 | AGTCTCGA | 0.0741
90 | GATTGGCA | 0.0769
91 | GCGATAGC | 0.0715
92 | GAAATGGC | 0.0704
93 | AGATAGGG | 0.0734
94 | CGTGACGA | 0.0815
95 | CTTGGGAA | 0.0688
96 | CACCAGGC | 0.0736
97 | CACCCGTA | 0.0782
98 | TAAACCGA | 0.0706
99 | AGTTCAGC | 0.0711
100 | CCCTCTAG | 0.0703

Row | Sequence | binding signal (normalized occupancy)
101 | GCGGATCC | 0.0685
102 | CCTCTGAG | 0.0687
103 | AAAAGGCG | 0.0698
104 | AGGTCACA | 0.0775
105 | AGGAGGAC | 0.0737
106 | AGAAGGCA | 0.0834
107 | GTCAAATA | 0.0793
108 | CTCGACAA | 0.0725
109 | CACATAAG | 0.0781
110 | GGCTTAAC | 0.0703
111 | AAAACTCA | 0.0783
112 | GTCGGACA | 0.073
113 | AGGGAGCC | 0.0674
114 | AAAGAAGA | 0.0797
115 | AAGCATGT | 0.0997
116 | TAGGCTCA | 0.0762
117 | CAACGCGA | 0.0767
118 | AGAATCAC | 0.074
119 | ACTGAGTA | 0.0741
120 | CTTGTGAC | 0.077
121 | CTATTACA | 0.083
122 | ACAGCCAA | 0.0735
123 | AACTAACC | 0.074
124 | CAGTCATG | 0.0864
125 | CATAGGGA | 0.076

Row | Sequence | binding signal (normalized occupancy)
126 | AATATCTA | 0.0771
127 | CTTAGCTC | 0.0685
128 | CGATGCAC | 0.0796
129 | CTATGGCA | 0.0779
130 | AGTATATA | 0.0822
131 | GACCTACC | 0.0705
132 | CATCGCGA | 0.0728
133 | AGAACCAC | 0.0811
134 | AAACTGAA | 0.0754
135 | ATCTCGCA | 0.0744
136 | GCAATCCA | 0.0751
137 | CGCTGATA | 0.0746
138 | AGGTTCAA | 0.0758
139 | CTTAATAC | 0.0786
140 | ACCATTAG | 0.0781
141 | ATCTTGGG | 0.0805
142 | AAGGGTCT | 0.0758
143 | GGGGGCGA | 0.0744
144 | AATAGCTA | 0.0703
145 | ACTGCACA | 0.0759
146 | CGTAAACC | 0.0766
147 | AAGACCAT | 0.0781
148 | GGATGGGA | 0.0795
149 | ACCCGATC | 0.0753
150 | CAGCCGTA | 0.0699

Row | Sequence | binding signal (normalized occupancy)
151 | ACAGACTA | 0.0749
152 | CCGACGCG | 0.0755
153 | CGGCGAGA | 0.0704
154 | CGTTGATA | 0.0836
155 | TCACTGCA | 0.075
156 | CTAGAGCC | 0.0723
157 | AGTTATCC | 0.0764
158 | CAAGGTGG | 0.0807
159 | AAGCAGGA | 0.0763
160 | GCGTTTAA | 0.077
161 | GAATTACC | 0.072
162 | ACACTCAT | 0.0864
163 | CGGCGCGC | 0.0738
164 | AGATGCAA | 0.0764
165 | GAAAGATA | 0.0832
166 | AGATTTAC | 0.0746
167 | AATCAGGG | 0.078
168 | TGCTGAAA | 0.0767
169 | GCTGGGGA | 0.0757
170 | AAGGCATG | 0.0988
171 | GCTTACGA | 0.0728
172 | TCCATTCA | 0.0754
